{"source": "PubChem BioAssay AID463173", "about": "(ICCB-Longwood Screening Facility, Harvard Medical School, 2010)", "note": "Hit rate of the full screen: of about 52,000 compounds, about 1,700 (3.3%) were called active. Rule as the data show it: active = survival mostly below about 52% (no sharp cut-off); inactive = mostly above about 56%. The list shows a part of the results."}
{"test_system": "Wild type", "experiment": "growth inhibition of S. aureus wild type versus tarO mutant, primary screen, teichoic acid synthesis inhibitors, RN4220, OD600 (AID 463173)", "settings": "S. aureus RN4220 wild type/DeltatarO growth, OD600, 18 h, stronger effect = lower value, screened at 18.75 µg/mL (by protocol)"}
{"smiles": "CCn1c(=O)cc(OCC(=O)NCc2ccc(F)cc2Cl)c2ccccc21", "survival": "inactive: 99%"}
{"smiles": "CC12COC3(C(=O)Nc4ccccc4)CC1CCC32C", "note": "(configuration not stated)", "survival": "inactive: 98%"}
{"smiles": "CCOc1ccc(N2CC(c3nc4ccccc4n3CCC3CCCCC3)CC2=O)cc1", "note": "(configuration not stated)", "survival": "inactive: 29%"}
{"smiles": "CCCNC(=O)C1CCN(c2cc(C)nc3c(-c4ccc(OC)c(OC)c4)c(C)nn23)CC1", "survival": "inactive: 80%"}
{"smiles": "O=C1CN(C(=O)c2ccccc2)C(c2ccc(F)cc2)c2cc(Br)ccc2N1", "note": "(configuration not stated)", "survival": "inactive: 72%"}
{"smiles": "CCc1cccc(C)c1NC(=O)Nc1csc2c1CCCC2", "survival": "inactive: 82%"}
{"smiles": "COc1ccc2sc(N(Cc3cccnc3)C(=O)c3ccco3)nc2c1", "survival": "active: -4%"}
{"smiles": "Cc1ccc(C)c(NC(=O)CSc2nncn3c2cc2sccc23)c1", "survival": "inactive: 80%"}
{"smiles": "Cc1oc(-c2ccc(Cl)cc2)nc1CSc1nnc(C)n2c1cc1sccc12", "survival": "inactive: 96%"}
{"smiles": "Cc1ccc(CCNc2nc3ccccc3c3nc(-c4ccccc4)nn23)cc1", "survival": "inactive: 73%"}
{"smiles": "O=C(NCCc1c[nH]c2ccccc12)Nc1ccccc1C(F)(F)F", "survival": "inactive: 100%"}
{"smiles": "CCN1CCCC1CN(Cc1cc2cc(OC)ccc2[nH]c1=O)C(=O)Nc1ccccc1", "note": "(configuration not stated)", "survival": "inactive: 99%"}
{"smiles": "COc1ccc(-c2noc(-c3ccc(NC4CCCCC4)c([N+](=O)[O-])c3)n2)cc1OC", "survival": "inactive: 84%"}
{"smiles": "Cc1cccc(CS(=O)(=O)CC2Nc3ccc(C(=O)NCc4ccccc4Cl)cc3NC2=O)c1", "note": "(configuration not stated)", "survival": "inactive: 73%"}
{"smiles": "COC(=O)c1cc(NC(=O)Cn2ncc3c2-c2ccccc2OC3)cc(C(=O)OC)c1", "survival": "inactive: 79%"}
{"smiles": "CCCn1c2ccccc2c2cnn(CC(=O)N(CCCOC(C)C)Cc3ccco3)c(=O)c21", "survival": "inactive: 76%"}
{"smiles": "COc1cc(Nc2ncnc3onc(-c4ccc(Cl)cc4)c23)cc(OC)c1", "survival": "inactive: 110%"}
{"smiles": "COc1cc(C(=O)Nc2ccc(OCc3cc(=O)n4ccc(C)cc4n3)cc2)cc(OC)c1OC", "survival": "active: 0%"}
{"smiles": "Cc1ccc(-n2c(=O)c3c(C)c(C)sc3n(CC(=O)c3ccc(Cl)cc3)c2=O)cc1C", "survival": "inactive: 74%"}
{"smiles": "Cc1ccc2c(c1)N(CC(=O)N1CCCc3ccccc31)C(=O)CO2", "survival": "inactive: 101%"}
{"smiles": "CCOC1=CC2=C(CC(C)(C)CC2=O)OC1N(C)C", "note": "(configuration not stated)", "survival": "inactive: 112%"}
{"smiles": "N#Cc1ccccc1CSc1nnc(-c2ccccc2)o1", "survival": "inactive: 61%"}
{"smiles": "Cc1cc(NC(=O)CCC(=O)N(Cc2ccccc2)C2(C(=O)NC3CCCCC3)CCCC2)no1", "survival": "inactive: 106%"}
{"smiles": "O=C(Cn1c(=O)n(Cc2ccc(F)cc2)c(=O)c2sc3ccccc3c21)NCc1ccccc1Cl", "survival": "inactive: 92%"}
{"smiles": "COc1ccc(N2CCN(C(CNS(=O)(=O)c3c(C)cc(C)cc3C)c3ccco3)CC2)cc1", "note": "(configuration not stated)", "survival": "inactive: 87%"}
{"smiles": "Cc1ccn2c(Nc3ccc4c(c3)OCO4)c(-c3ccco3)nc2c1", "survival": "inactive: 94%"}
{"smiles": "N#Cc1c(C(F)(F)F)cc(-c2cccs2)nc1SCC(=O)Nc1ccc(Cl)cc1", "survival": "inactive: 78%"}
{"smiles": "CNC(=O)CSc1ncnc2sc3c(c12)CCCC3", "survival": "inactive: 104%"}
{"smiles": "Cc1cccc(N2CCN(S(=O)(=O)c3c(C)[nH]c(=O)[nH]c3=O)CC2)c1C", "survival": "inactive: 72%"}
{"smiles": "N#Cc1cc2nc3c(nc2cc1C#N)-c1cccc2cccc-3c12", "survival": "inactive: 103%"}
{"smiles": "CCOC(=O)c1ccc(NC(=O)CN(c2ccc(C)cc2)S(=O)(=O)c2ccc(OC)cc2)cc1", "survival": "inactive: 139%"}
{"smiles": "CCC(=O)Nc1nnc(S(=O)(=O)N(C)Cc2ccc(Cl)cc2)s1", "survival": "inactive: 75%"}
{"smiles": "O=S1(=O)c2ccccc2N(Cc2ccc(Cl)cc2F)c2ccccc21", "survival": "inactive: 91%"}
{"smiles": "CN(C)S(=O)(=O)c1ccc2c(c1)c(=O)c(C(=O)N1CCN(c3cccc(Cl)c3)CC1)cn2C", "survival": "inactive: 93%"}
{"smiles": "COc1ccc(OC)c(NC(=O)CSC2=Nc3ccccc3C3=NC(CCC(=O)NCc4ccco4)C(=O)N23)c1", "note": "(configuration not stated)", "survival": "inactive: 70%"}
{"smiles": "CCOc1ccccc1NC(=O)CSC1=Nc2ccccc2C2=NC(CC(=O)NC3CCCCC3)C(=O)N12", "note": "(configuration not stated)", "survival": "inactive: 81%"}
{"smiles": "COC(=O)CN(Cc1ccccc1)S(=O)(=O)c1ccc2c(c1)OCCO2", "survival": "inactive: 101%"}
{"smiles": "CCOc1ccc(CN2C(=O)c3ccccc3Sc3ccc(C(=O)N4CCN(C)CC4)cc32)cc1", "survival": "inactive: 76%"}
{"smiles": "CCOc1ccc(-c2nc3c(c(SCC(=O)N4CCCCC4)n2)Cc2cc(C)ccc2O3)cc1", "survival": "inactive: 78%"}
{"smiles": "COc1ccc(N2CCN(CCCNC(=O)Nc3ccccc3Cl)CC2)cc1", "survival": "inactive: 72%"}
{"smiles": "COc1ccc(CCNC(=O)CN(c2ccc(C)cc2)S(=O)(=O)c2ccc(OC)cc2)cc1", "survival": "inactive: 71%"}
{"smiles": "Cc1cc(NC(=O)c2cccnc2)cc(-c2nc3cc(Cl)ccc3o2)c1O", "survival": "inactive: 157%"}
{"smiles": "CCC(CC)C(=O)Nc1c(C(=O)N2CCN(c3ccccc3F)CC2)oc2ccccc12", "survival": "inactive: 113%"}
{"smiles": "CCC(Sc1nc2cc(OC)c(OC)cc2c(=O)n1Cc1ccc(Cl)cc1)C(=O)NCCOC", "note": "(configuration not stated)", "survival": "inactive: 81%"}
{"smiles": "Brc1ccc(-c2ccc(CNCCSc3nnnn3-c3ccccc3)o2)cc1", "survival": "inactive: 53%"}
{"smiles": "CCn1nnnc1SCC(N)=O", "survival": "inactive: 101%"}
{"smiles": "O=C(NC1CC(=O)N(c2ccccc2)C1)c1ccc(S(=O)(=O)N2CCOCC2)cc1", "note": "(configuration not stated)", "survival": "active: 14%"}
{"smiles": "Cc1cc(C)cc(Oc2c(C(F)(F)F)oc3c(CN4CCCC(C)C4)c(O)ccc3c2=O)c1", "note": "(configuration not stated)", "survival": "inactive: 71%"}
{"smiles": "COc1ccccc1N1CCN(c2ccc3cc(S(=O)(=O)N4CCCCC4)ccc3n2)CC1", "survival": "inactive: 60%"}
{"smiles": "CCOC(=O)CC(NC(=O)c1cc2cc(Cl)ccc2oc1=O)c1ccc(C)cc1", "note": "(configuration not stated)", "survival": "inactive: 121%"}
{"smiles": "c1ccc(-c2cn(-c3ccccc3)c3ncnc(N4CCN(c5ccccc5)CC4)c23)cc1", "survival": "inactive: 73%"}
{"smiles": "CC(N=C1NC(C)(C)Cc2ccccc21)C(=O)O", "note": "(configuration not stated)", "survival": "inactive: 94%"}
{"smiles": "CC(C)OC(=O)c1cc2c(ccn2C)n1CC(=O)N(Cc1ccccc1)c1ccccc1", "survival": "inactive: 140%"}
{"smiles": "COc1ccc(OC)c(NC(=O)CSc2n[nH]c(-c3ccccc3Cl)n2)c1", "survival": "inactive: 80%"}
{"smiles": "CC1CCN(C(=O)CSc2c3c(nc4cc(Cl)ccc24)CCCC3)CC1", "survival": "active: 10%"}
{"smiles": "Cc1ccc(-c2nnc(SCCOc3ccccc3)o2)cc1", "survival": "inactive: 110%"}
{"smiles": "COc1ccc(Br)c2c1-c1nc(NC(=O)c3cccc(C)c3)sc1C2", "survival": "inactive: 64%"}
